# Measured values taken from PubChem BioAssay (NCATS).
# This list was built around the results that the source calls inconclusive (neither active nor inactive); the mix of calls is not that of the screen. Potencies of inconclusive entries are doubtful fits and often do not repeat. Active and inactive are the calls of the source. Calls follow the shape of the dose curve; as a rule, active = well fitted curve in the direction sought with a large enough effect; inconclusive = small, poorly fitted or top-dose-only effect, or another doubt; inactive = no such curve, though single readings can be large; an effect the other way counts as inactive or inconclusive.
# How the values were obtained:
# [1] = Primary qHTS for inhibitors of nuclear receptor binding SET domain protein 2 (NSD2) in an RCH-ACV wild type WT cells (2C) (AID 1645877); settings: activity change, negative = cell killing: at 44.9 µM (top of the series) unless noted; also: nearly all actives have a fitted effect of over 70% in size
# [2] = P-glycoprotein substrates identified in KB-3-1 adenocarcinoma cell line, qHTS therapeutic library screen (AID 1346986);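 also: potency is for cytotoxicity meaning loss of cell viability; nearly all actives have a fitted effect of over 60% in size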
# Outline: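 Viability by CellTiter-Glo after 72 h compound exposure at 37 degree C, 5% CO2. Cytotoxic call: curve class -1.1 to -2.4, maximum response >50%, AC50 < 10 uM, compared across KB-3-1 and P-gp-overexpressing KB-8-5-11.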
# [3] = P-glycoprotein substrates identified in KB-8-5-11 adenocarcinoma cell line, qHTS therapeutic library screen (AID 1346987); settings: activity change, negative = cytotoxicity: at 44.5 µM (top of the series); also: nearly all actives have a fitted effect of over 65% in size
# Outline: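 In this qHTS, P-gp-rich KB-8-5-11 cells received library compounds across a concentration range. Viability was quantified by luminescence after 72 h at 37 degree C.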
# [4] = Primary qHTS for inhibitors of nuclear receptor binding SET domain protein 2 (NSD2) in an isogenic RCH-ACV NSD2 p.E1099K mutant (9B) (AID 1645876); settings: activity change, negative = viability loss: at 44.9 µM (top of the series) unless noted; also: nearly all actives have a fitted effect of over 70% in size
# [5] = qHTS to identify inhibitors of the type 1 interferon - major histocompatibility complex class I in skeletal muscle: primary screen against the NCATS Mechanism Interrogation Plate v5.0 (MIPE) Libary (AID 1347411); settings: iHSKM cells + IFN-b, HiBiT-tagged MHC-I luminescence, 24 h; activity change, negative = inhibition: at 45.8 µM (top of the series) unless noted; also: nearly all actives have a fitted effect of over 65% in size
# Outline: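 HLA-B HiBit myoblasts, dexamethasone-free medium + 4 ng/ml IFN-b, 24 h compound, 11-pt 1:3 from 46 uM final. Readout: Nano-Glo HiBiT lytic luminescence after 10 min lysis, RT.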
# [6] = target: Phospholipid hydroperoxide glutathione peroxidase GPX4 (Homo sapiens) (UniProt P36969); experiment: Primary qHTS Assay for Inhibitors of Recombinant Selenoprotein Glutathione Peroxidase 4 (GPX4) (AID 1845192); settings: activity change, negative = inhibition: at 50 µM (top of the series) unless noted; also: nearly all actives have a fitted effect of over 65% in size
# Sequence of UniProt P36969 (P36969 whole entry, looked up): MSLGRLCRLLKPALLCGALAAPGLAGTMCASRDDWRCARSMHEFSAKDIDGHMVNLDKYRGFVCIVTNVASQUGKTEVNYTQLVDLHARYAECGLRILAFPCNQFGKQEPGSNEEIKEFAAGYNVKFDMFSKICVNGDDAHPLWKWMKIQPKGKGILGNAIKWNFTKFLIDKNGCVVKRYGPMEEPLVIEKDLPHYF
# Outline: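 Steps: GPX4 plus compound, 30 min RT; add GR/GSH/NADPH master mix; start with cumene hydroperoxide; read 340/450 nm fluorescence at 0 and 15 min. Finals were 200 nM GPX4, 1 mM GSH, 0.5 mM CHP, 0.5 mM NADPH, 100 nM GR.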
# [7] = target: Calcium and integrin-binding protein 1 (Homo sapiens) (UniProt Q99828); experiment: Confirmatory qHTS for Identification of Calcium Integrin Binding Protein 1 (CIB1) Competitor (AID 1508617); also: nearly all actives have a fitted effect of over 65% in size
# Sequence of UniProt Q99828 (Q99828 whole entry, looked up): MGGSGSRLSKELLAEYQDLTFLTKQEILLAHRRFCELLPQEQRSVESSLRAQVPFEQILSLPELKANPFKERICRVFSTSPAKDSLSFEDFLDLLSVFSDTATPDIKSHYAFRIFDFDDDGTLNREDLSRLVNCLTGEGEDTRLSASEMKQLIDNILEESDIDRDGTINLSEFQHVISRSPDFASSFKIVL
# Outline: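 Compounds at up to 114 uM final met 1 uM GST-tagged CIB1 for 15 min at room temperature (HEPES pH 7.4, 5 mM CaCl2). FITC-labelled alphaIIb peptide, 100 nM, added; polarization read after 15 min more.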
# [8] = target: Calcium and integrin-binding protein 1 (Homo sapiens) (UniProt Q99828); experiment: Primary qHTS for Identification of Calcium Integrin Binding Protein 1 (CIB1) Competitor (AID 1508620)
# Outline: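 Fluorescence polarization competition: GST-tagged CIB1 (1 uM final) preincubated with compound 15 min at room temperature, then FITC-labelled alphaIIb peptide (100 nM final) added. After 15 min at room temperature, polarization read at Ex 480/Em 540.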
# [9] = qHTS assay to identify inhibitors of the type 1 interferon - major histocompatibility complex class I in skeletal muscle: Counter screen cell viability and HiBit confirmation (AID 1347412); settings: iHSKM muscle cells + IFN-b, HiBiT or CellTiter-Glo, 24 h; also: nearly all actives have a fitted effect of over 60% in size
# Outline: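 HLA-B*08:01–HiBiT knock-in immortalized human myoblasts (C25cl48) stimulated with 4.0 ng/ml human IFN-beta and dosed with compound in a 12-point 1:3 titration (top final 46 uM). After 24 hrs at 37 C, HiBiT lytic luminescence or CellTiter Glo ATP read out.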
# Potency is read from the fitted curve at half-maximal effect; tags tell the direction and shape of the fitted curve.
structure (smiles),measurement,setting,value
CN(C)c1nc2c(Br)c(Br)c(Br)c(Br)c2[nH]1,Potency,[1],active: 10.3 µM
COc1ccccc1-c1nc(SCC(=O)Nc2ccc(C)c(C)c2)n[nH]1,Potency,[2],"inconclusive: 18.4 µM [inhibitor, single point]"
same,Potency,[3],"inconclusive: 25.9 µM [inhibitor, single point]"
same,Potency,[4],inactive
same,Potency,[1],"inconclusive: 25.9 µM [inhibitor, partial curve, poor fit]"
C[n+]1ccc(-c2c3nc(c(-c4cc[n+](C)cc4)c4ccc([nH]4)c(-c4cc[n+](C)cc4)c4nc(c(-c5cc[n+](C)cc5)c5ccc2[nH]5)C=C4)C=C3)cc1,Potency,[2],"inconclusive: 29.1 µM [inhibitor, single point]"
same,Potency,[3],"inconclusive: 29.1 µM [inhibitor, single point]"
same,Potency,[4],"inconclusive: 32.6 µM [inhibitor, partial curve, poor fit]"
CN1CCN(CCCNc2ncc(Cl)c(-c3cc4c(C(=O)NC5CC5)cccc4s3)n2)CC1,Potency,[2],"inconclusive: 29.1 µM [inhibitor, single point]"
same,Potency,[3],"inconclusive: 29.1 µM [inhibitor, single point]"
same,Potency,[5],"inconclusive: 18.6 µM [inhibitor, partial curve, poor fit]"
same,Potency,[4],"inconclusive: 29.5 µM [inhibitor, single point]"
same,Potency,[6],"inconclusive: 32.1 µM [inhibitor, single point]"
COC(=N)c1nc2ccc3ncnc(Nc4ccc(F)cc4Br)c3c2s1,Potency,[2],"inconclusive: 18.4 µM [inhibitor, single point]"
same,Potency,[3],"inconclusive: 29.1 µM [inhibitor, single point]"
same,Potency,[4],"inconclusive: 20.6 µM [inhibitor, single point]"
same,Potency,[1],"inconclusive: 18.4 µM [inhibitor, single point]"
CC(=O)O/N=C1/C(c2c(O)[nH]c3cc(Br)ccc23)=Nc2ccccc21,Potency,[2],"inconclusive: 25.9 µM [inhibitor, partial curve, poor fit]"
same,Potency,[3],"inconclusive: 29.1 µM [inhibitor, single point]"
same,Potency,[5],"inconclusive: 29.4 µM [inhibitor, single point]"
Cc1cc(C(=O)Nc2nc3cccc(Cl)c3n2C2CCCCN(C(=O)/C=C/CN(C)C)C2)ccn1 (configuration not stated),Potency,[2],"inconclusive: 29.1 µM [inhibitor, single point]"
same,Potency,[3],"inconclusive: 20.6 µM [inhibitor, single point]"
same,Potency,[4],active: 6.51 µM
O=C1Nc2ccccc2/C1=C/c1cc(O)ccc1O,Potency,[2],"inconclusive: 20.6 µM [inhibitor, single point]"
same,Potency,[3],"inconclusive: 29.1 µM [inhibitor, single point]"
Cc1ccc(NS(=O)(=O)c2cc3c(cc2Cl)CCC(=O)N3)cc1Cl,Potency,[2],"inconclusive: 29.1 µM [inhibitor, single point]"
same,Potency,[3],"inconclusive: 18.4 µM [inhibitor, partial curve]"
same,Potency,[4],"inconclusive: 16.4 µM [inhibitor, single point]"
same,Potency,[1],"inconclusive: 13 µM [inhibitor, partial curve]"
CCN1CCN(c2ccc(Nc3ccc(-c4ccc(C(N)=O)cc4)n4ncnc34)cc2)CC1,Potency,[2],"inconclusive: 20.6 µM [inhibitor, partial curve]"
same,Potency,[3],"inconclusive: 29.1 µM [inhibitor, single point]"
same,Potency,[7],"inconclusive: 22.4 µM [inhibitor, partial curve, poor fit]"
same,Potency,[8],"inconclusive: 35.5 µM [inhibitor, partial curve]"
same,Potency,[1],active: 7.31 µM
Cc1ccc(NS(=O)(=O)c2cc3c(cc2N(C)C)CCC(=O)N3)cc1C,Potency,[2],"inconclusive: 20.6 µM [inhibitor, single point]"
same,Potency,[3],"inconclusive: 16.4 µM [inhibitor, partial curve, poor fit]"
same,Potency,[4],"inconclusive: 10.3 µM [inhibitor, partial curve]"
same,Potency,[1],"inconclusive: 18.4 µM [inhibitor, partial curve]"
COC1(c2sc3c(N4CCOCC4)nc(-c4cnc(N)nc4)nc3c2C)COC1,Potency,[2],active: 0.184 µM
same,Potency,[3],active: 0.184 µM
same,Potency,[5],"inconclusive: 0.523 µM [inhibitor, full curve]"
same,Potency,[9]; HiBiT,"inconclusive: 625 nM [inhibitor, full curve]"
same,Potency,[9]; Viability,"inconclusive: 1570 nM [cytotoxic, full curve]"
Cc1noc(C)c1-c1ccc(-c2cc(C(N)=O)c(NC(N)=O)s2)c(O[C@H]2CCNC2)c1,Potency,[2],"inconclusive: 29.1 µM [inhibitor, single point]"
same,Potency,[3],"inconclusive: 20.6 µM [inhibitor, single point]"
same,Potency,[5],"inconclusive: 18.6 µM [inhibitor, partial curve, poor fit]"
same,Potency,[6],"inconclusive: 22.7 µM [inhibitor, single point]"
